{"source": "PubChem BioAssay AID445", "about": "(National Center for Advancing Translational Sciences (NCATS), 2006)", "note": "Out of some 110,000 compounds screened, about 40 (0.04%) were called active. The inconclusive results got no clear call from the source; some entries with a clear call stand among them for comparison. Calls follow the shape of the dose curve; as a rule, active = well fitted curve in the direction sought with a large enough effect in the signal ratio (not every such curve was filed as active); inconclusive = small, poorly fitted or top-dose-only effect, or a change in a side signal; inactive = flat fitted curve, though single readings scatter; the % refers to the signal ratio. Potencies beside an inconclusive call are fits to weak or partial responses and may not hold up. Potency is read from the fitted curve at half-maximal effect."}
{"test": "IkB Signaling;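 as to IkBa stabilization activation: 0% = basal untreated cells and 100% = reference inhibitor full response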", "details": "ABC-DLBCL IkBa-CBG/CBR dual luciferase ratio (green luciferase fused to IkBa over red control in OCI-Ly3 lymphoma cells), 4 h; IkBa stabilization activation: at 57.1 µM (top of the series), scaled: untreated 0%, proteasome inhibitor 100% unless noted", "procedure,_shortened": "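Luminescence ratio of IκBα-fused green versus native red beetle luciferase in OCI-Ly3 cells, 4 h post-doxycycline with compound; red signal alone, scaled from basal (0%) to zero light (-100%), flagged nonspecific or cytotoxic effects.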"}
{"compound": "Fc1ccc(CNc2ccc(CNc3ncn[nH]3)cc2)cc1", "IkBa stabilization activation": "inactive"}
{"compound": "COc1ccc(N2CCN(C(=O)CCn3c(=O)c4cccn4c4cccnc43)CC2)cc1", "IkBa stabilization activation": "inactive"}
{"compound": "CC(C)n1c2ccccc2c2nnc(SCC(=O)OCN3C(=O)c4ccccc4C3=O)nc21", "IkBa stabilization activation": "inactive"}
{"compound": "Cc1ccc(-c2nc(-c3cc4cccc(OCc5cccc(C)c5)c4oc3=O)no2)cc1", "IkBa stabilization activation": "inconclusive: 12.7% [signal inhibitor]"}
{"compound": "CCc1c(C)nc2nncn2c1Nc1ccc(C(C)C)cc1", "IkBa stabilization activation": "inconclusive: 0.835% [signal inhibitor]"}
{"compound": "C=CCSc1nncn1/N=C/c1ccc(OC)cc1", "IkBa stabilization activation": "inactive"}
{"compound": "COc1ccc(OC)c(-c2nnc(NC(=O)C(C)Sc3nncn3C)s2)c1", "note": "(stereo unspecified)", "IkBa stabilization activation": "inactive"}
{"compound": "Cc1cccc(N2CC(C)Cn3c2nc2c3c(=O)n(CC(=O)OCc3ccccc3)c(=O)n2C)c1", "note": "(stereo unspecified)", "IkBa stabilization activation": "inconclusive: 2.23% [signal inhibitor]"}
{"compound": "O=C(c1ccc2c(c1)N(Cc1ccccc1F)C(=O)c1ccccc1S2=O)N1CCN(c2ccccc2)CC1", "note": "(stereo unspecified)", "IkBa stabilization activation": "inconclusive: 0.0444% [signal inhibitor]"}
{"compound": "CCCCN1CCCc2cc(CN(CCCN3CCOCC3)C(=O)Nc3ccc(OCC)cc3)ccc21", "IkBa stabilization activation": "inconclusive: -1.87% [signal inhibitor]"}
{"compound": "CCN(CC)S(=O)(=O)c1ccc2c(c1)N(CC(=O)N1CCN(c3ccccc3F)CC1)C(=O)CO2", "IkBa stabilization activation": "inconclusive: 2.75% [signal inhibitor]"}
{"compound": "CC1CN(c2nc3c(c(=O)n(Cc4ccc(Cl)c(Cl)c4)c(=O)n3C)n2C)CC(C)O1", "note": "(stereo unspecified)", "IkBa stabilization activation": "inconclusive: 1.64% [signal inhibitor]"}
{"compound": "COC(=O)C1C(=O)c2c([nH]c(C(=O)OC3CCCCCC3)c2C)CC1C", "note": "(stereo unspecified)", "IkBa stabilization activation": "inactive"}
{"compound": "CCOC(=O)c1ccc(Nc2ncnc3c2cnn3-c2cccc(Cl)c2)cc1", "IkBa stabilization activation": "inconclusive: 0.616% [signal inhibitor]"}
{"compound": "CCN(C(=O)c1cc2c(s1)-c1ccccc1OC2)c1cc(Cl)ccc1OC", "IkBa stabilization activation": "inconclusive: 2.35% [signal inhibitor]"}
{"compound": "CCCCC(c1nnnn1CC1CCCO1)N1CCN(c2nc3ccccc3s2)CC1", "note": "(stereo unspecified)", "IkBa stabilization activation": "inconclusive: 2.47% [signal inhibitor]"}
{"compound": "CCOC(=O)Cn1nnnc1CN(Cc1ccccc1)Cc1cc2cc(CC)ccc2[nH]c1=O", "IkBa stabilization activation": "inconclusive: 3.31% [signal inhibitor]"}
{"compound": "COC(=O)c1cccc(Nc2c(-c3ccc(O)c(OC)c3)nc3nc[nH]n23)c1", "IkBa stabilization activation": "inconclusive: 6.78% [signal inhibitor]"}
{"compound": "Cc1cccc2cc(CN(CC3CCCO3)C(=O)c3cccnc3)c3nnnn3c12", "note": "(stereo unspecified)", "IkBa stabilization activation": "inactive"}
{"compound": "COc1cccc(N2C(=O)CC(c3c[nH]c4ccccc34)C2=O)c1", "note": "(stereo unspecified)", "Potency": "inconclusive: 3.98 µM [signal inhibitor, partial curve]"}
{"compound": "Cc1ccc(-c2nc3cc(C(C)C)ccc3o2)cc1NC(=O)c1cccs1", "Potency": "inconclusive: 5.01 µM [signal inhibitor, partial curve]"}
{"compound": "Cc1cccc(NC(=O)CSc2nc3ccc(NC(=O)c4ccco4)cc3s2)c1", "IkBa stabilization activation": "inconclusive: 0.18% [signal inhibitor]"}
{"compound": "Cc1ccc2nc(-c3ccc(O)cc3)c(Nc3ccc4c(c3)OCO4)n2c1", "IkBa stabilization activation": "inconclusive: 1.91% [signal inhibitor]"}
{"compound": "COc1cc(-c2nnc(SCC(=O)Nc3ccc(F)c(Cl)c3)o2)cc(OC)c1OC", "IkBa stabilization activation": "inconclusive: 2.6% [signal inhibitor]"}
{"compound": "O=c1c2[nH]c3ccccc3c2ncn1Cc1ccccn1", "IkBa stabilization activation": "inactive"}
{"compound": "C=CC(=O)OCC(CO)(COC(=O)C=C)COC(=O)C=C", "Potency": "inconclusive: 1.26 µM [signal inhibitor, partial curve, poor fit]"}
{"compound": "COc1cccc(C(=O)Nc2ccccc2OCc2cc(=O)n3cc(C)ccc3n2)c1", "IkBa stabilization activation": "inconclusive: 0.32% [signal inhibitor]"}
{"compound": "CCc1ccc(NC(=O)CSc2nc3n[nH]c(C)c3c(=N)n2-c2ccccc2C)cc1", "IkBa stabilization activation": "inactive"}
{"compound": "Cn1c(=O)c2c(SCC(=O)NCc3ccco3)nc(CC(C)(C)C)nc2n(C)c1=O", "IkBa stabilization activation": "inactive"}
{"compound": "Cc1oc(-c2ccc(Cl)cc2)nc1CS(=O)CC(=O)NCc1ccc(Cl)cc1", "note": "(stereo unspecified)", "IkBa stabilization activation": "inconclusive: 0.344% [signal inhibitor]"}
{"compound": "O=C(c1ccco1)[C@@H]1[C@@H]2C(=O)N(c3ccc(Br)cc3)C(=O)[C@@H]2C2c3ccccc3C=CN21", "note": "(stereo partly specified)", "Potency": "inconclusive: 1 µM [signal inhibitor, full curve]"}
{"compound": "CCCN1C=CC(=C2C(=O)c3ccccc3C2=O)C=C1", "Potency": "inconclusive: 12.6 µM [signal inhibitor, partial curve]"}
{"compound": "COc1ccc(-c2nc3cnc(N4CCNCC4)nc3n(C3CC3)c2=O)cc1", "IkBa stabilization activation": "inactive: -1.42% [at 11.4 µM, scaled: untreated 0%, proteasome inhibitor 100%]"}
{"compound": "COc1ccccc1N1CCN(C(CNC(=O)C(=O)NCCCN(C)C)c2cccnc2)CC1", "note": "(stereo unspecified)", "IkBa stabilization activation": "inconclusive: 1.4% [signal inhibitor]"}
{"compound": "CCOC(=O)C1=C(CS(=O)(=O)c2c(C)cc(C)cc2C)NC(=O)NC1c1cccc(OC)c1", "note": "(stereo unspecified)", "IkBa stabilization activation": "inconclusive: -2.12% [signal inhibitor]"}
{"compound": "COc1ccc(N(CC(=O)NCCc2cccc(C)c2)S(=O)(=O)c2c(C)nn(C)c2C)cc1", "IkBa stabilization activation": "inconclusive: 0.205% [signal inhibitor]"}
{"compound": "CC(C)(C)OC(=O)NCCc1nnc(S(=O)(=O)Cc2ccc(Cl)cc2Cl)o1", "Potency": "inconclusive: 3.16 µM [signal inhibitor, partial curve]"}
{"compound": "CCOc1ccc(OCC)c(NC(=O)C2CCN(S(=O)(=O)c3ccc(Br)s3)CC2)c1", "IkBa stabilization activation": "inconclusive: 7.08% [signal inhibitor]"}
{"compound": "CC(C)c1ccc(NC(=O)c2csnn2)cc1", "IkBa stabilization activation": "inactive"}
{"compound": "Cc1ccc(N2CCN(C(=O)Cc3c(C(=O)O)c(C)cn3C)CC2)c(C)c1", "IkBa stabilization activation": "inconclusive: -0.773% [signal inhibitor]"}
{"compound": "CC(=O)c1c(O)c(C)c(O)c2c1OC1=CC(=O)[C@H](C(C)=O)C(=O)[C@]12C", "IkBa stabilization activation": "inactive: -0.00807% [at 11.4 µM, scaled: untreated 0%, proteasome inhibitor 100%]"}
{"compound": "Cc1cccc(NC(=O)N2CCc3c(sc4c3CCCC4)C2c2ccc(F)cc2)c1", "note": "(stereo unspecified)", "IkBa stabilization activation": "inconclusive: -0.27% [signal inhibitor]"}
{"compound": "Cc1cc(C(=O)N2CCN(C(c3ccccc3)c3ccccc3)CC2)no1", "IkBa stabilization activation": "inconclusive: 5.99% [signal inhibitor]"}
{"compound": "CCc1ccc(NC(=O)CSc2nc3nccnc3c(=O)n2CCc2c[nH]c3ccccc23)cc1", "IkBa stabilization activation": "inactive"}
{"compound": "CCc1ccc(NC(=O)C2CCN(C(=O)N3CC(CC)Oc4ccccc43)CC2)cc1", "note": "(stereo unspecified)", "IkBa stabilization activation": "inconclusive: -0.603% [signal inhibitor]"}
{"compound": "COc1cccc(NC(=O)CCNS(=O)(=O)c2ccc(Br)s2)c1", "IkBa stabilization activation": "inconclusive: 2.91% [signal inhibitor]"}
{"compound": "COc1ccc(CNC(=O)Cc2csc3ccccc23)cc1OC", "IkBa stabilization activation": "inconclusive: 0.333% [signal inhibitor]"}
{"compound": "CC(NC(=O)c1cc(Sc2ccc(F)cc2F)nc2ccccc12)c1ccccc1", "note": "(stereo unspecified)", "IkBa stabilization activation": "inconclusive: 1.47% [signal inhibitor]"}
{"compound": "CCc1ccc2oc(-c3cc(N)ccc3O)nc2c1", "IkBa stabilization activation": "inconclusive: 9.26% [signal inhibitor]"}
{"compound": "Cc1nc2ncnn2c(Nc2ccc3c(c2)OCO3)c1Cc1ccccc1", "IkBa stabilization activation": "inconclusive: 9.53% [signal activator]"}
{"compound": "COc1ccc2nc(NC(=O)c3nc(SCc4ccc(F)cc4)ncc3Cl)sc2c1", "IkBa stabilization activation": "inactive"}
{"compound": "Cc1cn2c(=O)c(S(=O)(=O)NCCc3ccccc3)c(C)nc2s1", "IkBa stabilization activation": "inconclusive: 0.864% [signal inhibitor]"}
{"compound": "O=C(c1ccco1)N1CCN(C(=O)c2cc3sccc3n2Cc2ccccc2)CC1", "IkBa stabilization activation": "inconclusive: 2.12% [signal inhibitor]"}
{"compound": "Cc1cccc(CNc2ncnc3ccc(-c4ccccc4CN(C)C)cc23)c1", "IkBa stabilization activation": "inactive: -0.319% [at 11.4 µM, scaled: untreated 0%, proteasome inhibitor 100%]"}
{"compound": "CCOC(=O)c1c(C)[nH]c2cc(Br)c(O)cc12", "IkBa stabilization activation": "inactive"}
{"compound": "O=C(O)CCC(=O)N1CCc2cc(S(=O)(=O)NC3CCCc4ccccc43)ccc21", "note": "(stereo unspecified)", "Potency": "inconclusive: 25.1 µM [signal inhibitor, partial curve]"}
{"compound": "CCOC(=O)CSc1nc(N)c(C#N)c(-c2ccc(OCC)cc2)c1C#N", "IkBa stabilization activation": "inactive"}
{"compound": "CCc1ccccc1NC(=O)c1ccc2nc(CCc3ccccc3)oc2c1", "IkBa stabilization activation": "inactive"}
{"compound": "Cc1cc(C)c(OCC(=O)Nc2cccc(NC(=O)c3ccco3)c2)c(Br)c1", "IkBa stabilization activation": "inconclusive: 1.78% [signal inhibitor]"}
{"compound": "O=C(CCCN1Cc2ccccc2C1)c1ccc(F)cc1", "IkBa stabilization activation": "inactive"}
{"compound": "O=C(Cc1cccc([N+](=O)[O-])c1)NCc1nc2cccnc2n1Cc1ccc(F)cc1", "IkBa stabilization activation": "inconclusive: 7.56% [signal activator]"}
{"compound": "CC(=O)c1cccc(NC(=O)C2CCCN(c3nnc(-n4cccc4)s3)C2)c1", "note": "(stereo unspecified)", "IkBa stabilization activation": "inconclusive: 1.36% [signal inhibitor]"}
{"compound": "Cc1ccc(C)c(S(=O)(=O)C(C#N)c2nc3ccccc3nc2N2CCCC2)c1", "note": "(stereo unspecified)", "IkBa stabilization activation": "inactive"}
{"compound": "CN(C)S(=O)(=O)c1ccc(Nc2ccc(O)c3c2C(=O)c2c([N+](=O)[O-])ccc(O)c2C3=O)cc1", "IkBa stabilization activation": "inactive: 3.58% [at 11.4 µM, scaled: untreated 0%, proteasome inhibitor 100%]"}
{"compound": "O=C(Nc1ccc2c(c1)Cc1ccccc1-2)[C@@H]1[C@H](C(=O)O)[C@]2(Cl)C(Cl)=C(Cl)[C@@]1(Cl)C2(Cl)Cl", "IkBa stabilization activation": "inactive: 3.45% [at 11.4 µM, scaled: untreated 0%, proteasome inhibitor 100%]"}
{"compound": "COC(=O)c1ccccc1NC(=O)C1CCCN(S(=O)(=O)c2ccc(OC)cc2)C1", "note": "(stereo unspecified)", "IkBa stabilization activation": "inconclusive: 4.27% [signal inhibitor]"}
